# Experimental data from PubChem BioAssay AID492949 (National Center for Advancing Translational Sciences (NCATS), 2010).
# Inconclusive results, whose numbers are uncertain, are shown with a selection of clear calls. Where the call is inconclusive, the potency comes from a doubtful curve fit. The source made the active and inactive calls. The call rests on the fitted dose curve; in most records, active means well fitted activation curve with a large enough effect; inconclusive means small, poorly fitted or top-dose-only effect; inactive means no such curve, though single readings can be large or run the other way.
# Target: Relaxin receptor 1 (Homo sapiens) (UniProt Q9HBX9)
# Chain of UniProt Q9HBX9 (Q9HBX9 whole entry, looked up): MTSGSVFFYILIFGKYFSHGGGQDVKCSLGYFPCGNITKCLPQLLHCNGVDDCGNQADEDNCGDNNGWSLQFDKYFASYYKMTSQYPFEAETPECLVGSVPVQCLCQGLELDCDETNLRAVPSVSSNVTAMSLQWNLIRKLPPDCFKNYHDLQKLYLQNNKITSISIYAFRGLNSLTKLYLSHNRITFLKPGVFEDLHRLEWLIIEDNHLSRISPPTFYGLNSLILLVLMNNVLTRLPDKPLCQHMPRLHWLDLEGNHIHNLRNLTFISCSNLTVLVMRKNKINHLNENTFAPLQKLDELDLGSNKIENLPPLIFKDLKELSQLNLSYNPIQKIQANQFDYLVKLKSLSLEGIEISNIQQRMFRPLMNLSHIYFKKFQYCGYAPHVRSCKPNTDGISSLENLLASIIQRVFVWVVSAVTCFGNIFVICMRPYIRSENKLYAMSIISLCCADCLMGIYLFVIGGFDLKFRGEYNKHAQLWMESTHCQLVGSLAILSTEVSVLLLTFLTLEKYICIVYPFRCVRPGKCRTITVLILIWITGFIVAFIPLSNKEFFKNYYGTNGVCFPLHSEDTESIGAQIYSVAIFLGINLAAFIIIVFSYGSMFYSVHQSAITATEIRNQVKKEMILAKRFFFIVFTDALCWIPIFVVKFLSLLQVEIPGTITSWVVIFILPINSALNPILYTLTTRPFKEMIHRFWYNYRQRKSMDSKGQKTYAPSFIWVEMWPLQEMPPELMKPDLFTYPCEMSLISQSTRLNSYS
# Experiment: qHTS Assay for Agonists of the Relaxin Receptor RXFP1: THP1 Hit Validation; further: nearly all actives have a fitted effect of over 60% in size
# In short: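 THP1 cells stably expressing RXFP1 were exposed to compounds for 30 min at 37C with PDE4 inhibitor Ro 20174. Lysate cAMP was read by HTRF, normalized to buffer and 29 nM porcine relaxin, with Hill-fit EC50.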
# Potency means the concentration at half of the fitted maximal effect; tags describe the fitted curve by direction and shape.
row,Structure (SMILES),Potency
1,CCN(CC)c1ccc(S(=O)(=O)N2CCOCC2)cc1NC(=O)CSc1nncn1C,active: 15.4 µM
2,Cc1c(C(=O)NNc2cc(=O)n(C)c(=O)n2C)cccc1[N+](=O)[O-],"inconclusive: 21.8 µM [activator, partial curve]"
3,COc1ccc(CN2C(=O)c3cccnc3C2=O)cc1S(=O)(=O)N1CCCCC1C (stereo not drawn),"inconclusive: 0.0977 µM [activator, full curve]"
4,Cn1c(=O)c2sccc2n2c(CCCC(=O)NCCc3ccc(S(N)(=O)=O)cc3)nnc12,"inconclusive: 34.6 µM [activator, partial curve]"
5,COC(=O)c1ccc(COc2ncnc3ccccc23)o1,"inconclusive: 27.5 µM [activator, partial curve]"
6,O=C(O)c1cccc(CSc2nnc(Cc3ccccc3)o2)c1,inactive
7,CCOC(=O)C1CCN(C(=O)Cn2c(=O)c3cccn3c3cccnc32)CC1,"inconclusive: 30.9 µM [activator, partial curve]"
8,CN(C)S(=O)(=O)c1cccc(COc2ncnc3c(Cl)cc(Cl)cc23)c1,active: 5.49 µM
9,Cc1cccc(N2C(=O)C(O)=C(C(=O)c3cccs3)C2c2ccc(C(C)C)cc2)n1 (stereo not drawn),inactive
10,Cc1cccc2cc(C#N)c(SCC(=O)NCc3cccs3)nc12,active: 19.4 µM
11,CC(=O)Nc1cccc(NC(=O)CSc2nc3c(c(=O)n(C)c(=O)n3C)n2C)c1,"inconclusive: 17.4 µM [activator, full curve]"
12,CCOC(=O)N1CCN(S(=O)(=O)c2c(C)nc3scc(C)n3c2=O)CC1,"inconclusive: 13.8 µM [activator, partial curve]"
13,O=C(Nc1cccc(C(F)(F)F)c1)c1ccccc1NC(=O)C1CCCCC1,inactive
14,COC(=O)CCNC(=O)Cn1cnc2sc3c(c2c1=O)CCCC3,"inconclusive: 30.9 µM [activator, partial curve]"
15,Cc1cc(C(=O)COC(=O)Cn2cnc3c2c(=O)n(C)c(=O)n3C)c(C)n1C,"inconclusive: 15.5 µM [activator, full curve]"
16,Cn1c(=O)c2c(ncn2CC(=O)NC2CCCCC2)n(C)c1=O,"inconclusive: 34.6 µM [activator, partial curve]"
17,Cn1c(=O)c2sccc2n2c(CCCC(=O)N3CCN(c4ccccn4)CC3)nnc12,"inconclusive: 12.3 µM [activator, partial curve, poor fit]"
18,COC(=O)c1nc2ccc(N3CCOCC3)cc2c(C)c1C(=O)OC,"inconclusive: 27.5 µM [activator, partial curve]"
19,COc1ccc(NC(=O)CSc2nc(-c3ccc(C)cc3)cc(C(F)(F)F)c2C#N)cc1,"inconclusive: 17.3 µM [activator, partial curve]"

row,Structure (SMILES),Potency
1,C[C@H](Cc1ccccc1)Nc1ncnc2c1ncn2[C@@H]1O[C@H](CO)[C@@H](O)[C@H]1O,inactive
2,CCCn1c(SCC(=O)Nc2ccc(NC(C)=O)cc2)nc2c1c(=O)n(C)c(=O)n2C,"inconclusive: 38.9 µM [activator, partial curve]"
3,Cc1cccn2c(=O)c3cc(C(=O)NC4CCCC4)c(=N)n(CCCN4CCOCC4)c3nc12,"inconclusive: 54.9 µM [activator, partial curve, poor fit]"
4,CCOP1(=O)OCC2OC(n3cnc4c(N)ncnc43)C(O)C2O1 (stereo not drawn),active: 8.7 µM
5,O=C1c2cccnc2C(=O)N1Cc1ccc(F)cc1S(=O)(=O)NCc1ccco1,"inconclusive: 13.8 µM [activator, partial curve]"
6,CN(C)c1ccc(C(=S)N2CCN(S(=O)(=O)c3ccccc3)CC2)cc1,inactive
7,COC(=O)Cn1cnc2c(C#N)c3n(c2c1=O)CCCCC3,active: 8.7 µM
8,COc1cccc(/C=N/NC(=O)Cn2cnc3c2c(=O)n(C)c(=O)n3C)c1OC,"inconclusive: 15.5 µM [activator, full curve]"
9,Cc1nn(CCCC(=O)NCc2ccccc2)c(=O)c2nccn12,"inconclusive: 43.6 µM [activator, partial curve]"
10,Cc1ccccc1NC(=O)c1ccccc1NC(=O)c1ccco1,inactive
11,Cc1ccc(CNC(=O)CCc2nnc3ccc(N4CCC5(CC4)OCCO5)nn23)cc1,"inconclusive: 38.9 µM [activator, partial curve]"
12,O=C(NC1CCCCCC1)c1cc2c(=O)n3ccccc3nc2s1,"inconclusive: 30.9 µM [activator, partial curve]"
13,CCN(CC)S(=O)(=O)c1ccc(C(=O)NCCN2C(=O)S/C(=C\c3cccnc3)C2=O)cc1,"inconclusive: 7.76 µM [activator, full curve]"
14,COc1ccc(NC(=O)CSc2ccc3nnc(-c4cccnc4)n3n2)cc1OC,"inconclusive: 17.4 µM [activator, full curve, poor fit]"
15,Brc1ccc(-c2nn3c(-c4ccco4)nnc3s2)o1,active: 17.3 µM
16,O=C(CCc1nnc2ccc(N3CCC4(CC3)OCCO4)nn12)NCc1ccc(F)cc1,"inconclusive: 38.9 µM [activator, partial curve]"
17,Cc1cc(=O)n2nc(N3CCCC3C(=O)Nc3ccccc3C)sc2n1 (stereo not drawn),"inconclusive: 27.5 µM [activator, partial curve, poor fit]"
18,Cc1cc(C(=O)OCC(=O)c2ccc(Br)s2)no1,"inconclusive: 0.0012 µM [activator, full curve, poor fit]"
19,Cc1cc(NC(=O)CSc2ncnc3c2cnn3-c2cccc(Cl)c2)no1,"inconclusive: 10.9 µM [activator, full curve, poor fit]"
